# Experimental data from article PMC4336329 (PLoS ONE, 2015).
# About 2,200 (0.71%) of roughly 310,000 compounds showed an effect of 50% or more. The effect is printed as a negative number. This is one part of the list.
# Molecular target: human ether-à-go-go-related gene (hERG) potassium channel (human, UniProt Q12809)
# Test: primary screen, population patch clamp on CHO cells stably expressing hERG
# human ether-à-go-go-related gene (hERG) potassium channel, sequence (Q12809 whole entry, looked up): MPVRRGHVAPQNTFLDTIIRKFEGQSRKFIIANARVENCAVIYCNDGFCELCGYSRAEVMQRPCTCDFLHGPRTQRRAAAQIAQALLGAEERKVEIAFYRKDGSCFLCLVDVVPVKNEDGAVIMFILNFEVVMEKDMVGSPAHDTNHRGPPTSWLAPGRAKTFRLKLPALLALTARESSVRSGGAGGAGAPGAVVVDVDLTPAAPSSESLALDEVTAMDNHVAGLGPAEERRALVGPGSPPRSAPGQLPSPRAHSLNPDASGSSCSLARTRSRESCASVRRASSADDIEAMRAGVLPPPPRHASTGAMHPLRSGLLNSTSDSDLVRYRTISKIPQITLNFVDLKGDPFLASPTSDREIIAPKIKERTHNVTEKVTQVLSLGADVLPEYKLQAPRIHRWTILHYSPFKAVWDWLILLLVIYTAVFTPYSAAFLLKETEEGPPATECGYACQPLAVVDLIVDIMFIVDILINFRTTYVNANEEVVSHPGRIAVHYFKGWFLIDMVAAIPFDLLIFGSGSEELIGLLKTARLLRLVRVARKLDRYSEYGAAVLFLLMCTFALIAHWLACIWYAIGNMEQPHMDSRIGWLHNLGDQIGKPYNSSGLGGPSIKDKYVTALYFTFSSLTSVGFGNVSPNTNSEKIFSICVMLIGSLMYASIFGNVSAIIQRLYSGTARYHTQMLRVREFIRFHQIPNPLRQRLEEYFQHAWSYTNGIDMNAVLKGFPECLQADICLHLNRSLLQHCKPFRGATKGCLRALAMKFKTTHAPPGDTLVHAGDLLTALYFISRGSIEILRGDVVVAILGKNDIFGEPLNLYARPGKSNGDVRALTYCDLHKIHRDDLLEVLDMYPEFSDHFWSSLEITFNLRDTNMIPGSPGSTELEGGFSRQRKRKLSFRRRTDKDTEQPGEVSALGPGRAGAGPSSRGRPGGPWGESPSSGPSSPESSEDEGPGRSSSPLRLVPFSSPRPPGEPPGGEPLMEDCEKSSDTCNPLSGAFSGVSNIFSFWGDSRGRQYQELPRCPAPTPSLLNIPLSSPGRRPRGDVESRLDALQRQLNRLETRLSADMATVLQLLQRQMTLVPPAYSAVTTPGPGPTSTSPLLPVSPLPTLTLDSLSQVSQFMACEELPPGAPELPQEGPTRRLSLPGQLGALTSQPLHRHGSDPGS
row,Structure (SMILES),"hERG current change (%, negative = inhibition) at 1uM [%]"
1,Cn1cnnc1SCC(=O)c1ccc2c(c1)CCCC2,4.38
2,CCOC(=O)CS(=O)(=O)c1ccccc1,9.04
3,Cc1ccc(C(=O)NCCSc2ccc(Cl)cc2)cc1S(=O)(=O)Nc1ccccc1,15.5
4,CCOc1ccccc1OCCCNCc1ccco1.O=C(O)C(=O)O,8.14
5,Cc1ccc(CN2CCSc3ccc(C(=O)NC4CCN(Cc5ccccc5)CC4)cc32)cc1,9.23
6,O=C(/C=C/c1cccs1)NC(=S)NNC(=O)c1ccccc1O,21.8
7,O=C(Cc1ccc(Cl)cc1)NCC(=O)N1CCCCC1,5.51
8,Cc1cc(C)c(S(=O)(=O)c2ccccc2)c(OC(=O)c2c(F)cccc2F)n1,-2.45
9,CC(=O)c1ccc(NC(=O)C2CCCN2S(=O)(=O)c2ccc(C)cc2)cc1 (stereo not shown),7.05
10,O=C(CN1C(=O)c2ccccc2S1(=O)=O)N1CCN(c2ccccc2F)CC1,7.97
11,O=C(C1CCC(=O)N1C1CCCCC1)N1CCC2(CC1)OCCO2 (stereo not shown),13.2
12,CC1(C)CC(=O)/C(=C(\O)c2ccccc2)C(=NCCO)C1,11.9
13,CC(=O)c1ccc(S(=O)(=O)NC2CC(=O)N(c3ccc(Cl)cc3)C2)cc1 (stereo not shown),0.55
14,CCOc1cc(/C=N/NC(=O)C(=O)NC2CC2)cc(Br)c1O,10.4
15,Cc1ccsc1C(=O)N(c1nc2ccccc2s1)c1c(C)cccc1C,23.7
16,CCOC(=O)N1CCN(C(=O)c2cc3cc(Br)ccc3oc2=O)CC1,-7.29
17,Cc1ccc(C(=O)c2c3ccc([N+](=O)[O-])cc3[n+]([O-])n2CCC(N)=O)cc1,-10.2
18,O=C(Cn1c(=O)[nH]c2sc3c(c2c1=O)CCCC3)NCC1CCCO1 (stereo not shown),13.4
19,Cc1nc(-c2ccc(Cl)cc2)sc1C1(C)CC(c2ccccc2Br)=NO1 (stereo not shown),17.2
20,O=C(Nc1c(Cl)cc(Cl)cc1-c1nc2ccccc2s1)c1ccc(Br)o1,3.08
21,COc1ccc(OC)c(/C=C/C(=O)N2CCCc3ccccc32)c1,13.6
22,Cc1ccccc1-n1c(=O)c2c(n3cnnc13)-c1ccccc1CC21CCCCC1,7.92

row,Structure (SMILES),"hERG current change (%, negative = inhibition) at 1uM [%]"
1,CCC(C)(C(=O)NC1CCCC1)N(Cc1ccco1)C(=O)c1ccccn1 (stereo not shown),2.89
2,COc1ccc(NC(=O)CN(C)C(=O)CCSc2ccc(C)cc2)cc1,2.77
3,Cc1nc(-c2cccc(Br)c2)ccc1C(=O)O,13
4,Cn1c(CCC(=O)OCC(=O)NCc2ccc3c(c2)OCO3)nc(=O)c2ccccc21,16.2
5,COc1ccc(C(CNC(=O)c2cccc(S(=O)(=O)Nc3ccccc3OC)c2)N2CCCC2)cc1 (stereo not shown),-4.37
6,C[C@H](NC(=O)N1CCn2c1nc1ccccc12)C(=O)NCCc1ccccc1,17.4
7,COc1ccc(-c2cc3ccc(OCC(N)=O)cc3oc2=O)cc1OC,11.5
8,COc1ccc2nc3c(cc2c1)c(NC(=O)CC(C)C)nn3CC(C)C,14.7
9,COc1cccc(C(=O)OCC(=O)c2c[nH]c3ccccc23)c1O,9.62
10,Cc1cc(C)c(S(=O)(=O)N2CCN(C(=O)CCn3nc(C)c(C)c3C)CC2)c(C)c1,-0.0132
11,O=S(=O)(Nc1ccc2ccccc2n1)c1ccc2c(c1)CCO2,11.2
12,CCOC(=O)Nc1sc(NS(=O)(=O)c2ccc(C)cc2)nc1C,6.6
13,Cc1c(Cl)c([N+](=O)[O-])nn1Cc1ccc(C(=O)N/N=C\c2cccc(Br)c2)o1,7.39
14,CNS(=O)(=O)c1cccc(C(=O)OCC(=O)Nc2ccccc2F)c1,-0.168
15,O=C(c1ccccc1)N1CCN(C(=O)c2cc3nc(-c4ccccc4)cc(C(F)(F)F)n3n2)CC1,4.91
16,Fc1ccc(NC(=S)N2CCc3[nH]c4ccccc4c3C2)cc1,9.31
17,Cc1cc(=O)n2[nH]c(-c3ccc(F)cc3)nc2n1,14.4
18,COc1ccc(C(=O)Nc2nccs2)cc1OC,0.458
19,CCOC(=O)c1cnc(SC)nc1Sc1ccc(Cl)cc1Cl,-0.374
20,Cc1ccc2c(c1)C(=O)C(=O)N2CC(=O)Nc1ccccc1NC(=O)c1ccccn1,1.58
21,CCOC(=O)COc1ccc(S(=O)(=O)Nc2cccc(SC)c2)cc1,-1.68
22,CCOC(=O)Nc1sc(C)c(C)c1C(=O)OCC,13.4

row,Structure (SMILES),"hERG current change (%, negative = inhibition) at 1uM [%]"
1,Cc1ccc(C(=O)C2CN3CCC2CC3)cc1.Cl (stereo not shown),-8.7
2,CCS(=O)(=O)N1CCN(c2ccccc2F)CC1,29.6
3,CCn1cc(C(=O)NCc2ccc3c(c2)OCO3)c(=O)c2cc(F)c(N3CCN(C(=O)c4ccco4)CC3)cc21,6.56
4,COCCn1nnnc1C1(N(Cc2cc3cc(C)ccc3[nH]c2=O)CC2CCCO2)CCN(C)CC1 (stereo not shown),3.81
5,Cn1cc(CN2CCC(C(O)c3cccs3)CC2)c(-c2cccc(Cl)c2)n1 (stereo not shown),-2.58
6,Cc1ccc(S(=O)(=O)NCCC(=O)OCC(=O)NC(=O)c2cccn2C)cc1,6.53
7,COc1cc(C(CCN2CCCC2)c2c(OC)cc(OC)c3c(-c4ccccc4)cc(=O)oc23)cc(OC)c1OC (stereo not shown),-10.9
8,Cc1cccc(N2CC(C)Cn3c2nc2c3c(=O)[nH]c(=O)n2C)c1 (stereo not shown),3.18
9,CCOc1ccc(C(=O)NCC(=O)NCC(c2ccc(OC)cc2)N2CCOCC2)cc1OCC (stereo not shown),14.2
10,CCN(CC)c1ccc2nc3c4ccccc4c(=O)cc-3oc2c1,15.4
11,CN1C(=O)N(C)C(=O)C2(Cc3ccccc3N3CCCC32)C1=O (stereo not shown),13.3
12,Cc1cccc(CSCc2ccc(C(=O)NC(C)C)o2)c1,14.9
13,CN(C)S(=O)(=O)c1ccc(NC(=O)CN2CCc3ccccc32)cc1,18
14,CCOc1ccc(NC(=O)C2CCCCN2S(=O)(=O)c2ccccc2)cc1 (stereo not shown),-1.61
15,COc1ccccc1NC(=O)CC(NCc1ccccc1)C(=O)O (stereo not shown),6.6
16,Cc1ccc(-c2ccc(=O)n(CCC(=O)N3CCC4(CC3)OCCO4)n2)cc1,-38.6
17,S=C(NNc1ccc2ccccc2c1)NC1CCCCC1,15.1
18,COc1ccc2[nH]c(C(=O)NCCCn3ccnc3)cc2c1,6.88
19,COC(=O)c1ccccc1N(C)S(=O)(=O)c1cc2c(cc1C)OCC(=O)N2,5.7
20,COc1ccccc1C(=O)Nc1sc2c(c1C#N)CCC2,5.02
21,Cc1cccc(Cc2ccc(Cl)nn2)c1,13.2
22,Cc1noc(C)c1COC(=O)CCCOc1ccc(Cl)cc1Cl,14.8

row,Structure (SMILES),"hERG current change (%, negative = inhibition) at 1uM [%]"
1,CCOc1ccc2[nH]c(C)c(CN3CCN(CC)CC3)c(=O)c2c1,12.8
2,COc1ccc(-c2cc(C(F)(F)F)nc(SCC(=O)NCCCN3CCOCC3)n2)cc1,-3.6
3,Cc1ccc(O)c(CCc2ccc(O)cc2)n1.Cl,5.83
4,CC(=O)c1ccc(-n2nncc2-c2ccc([N+](=O)[O-])cc2)cc1,3.64
5,CCC(=O)Nc1cccc(NC(=O)CSc2nnnn2C2CCCC2)c1,1.01
6,NC(=O)c1nsc(C(=O)N(c2cccc(F)c2)C(C(=O)NC2CCCC2)c2ccc(O)cc2)c1N (stereo not shown),15.7
7,O=C(NC1CCCc2ccccc21)c1c(F)cccc1Cl (stereo not shown),9.5
8,Nc1ccc(NC(=O)c2ccccc2)c2c1C(=O)c1ccccc1C2=O,15.2
9,Cn1c(=O)c2c(nc(SCC(=O)c3ccc(F)cc3)n2C)n(C)c1=O,1.25
10,Cc1ccc(NC(=O)CSCC(=O)N=c2sccn2C)cc1,8.85
11,NC(=S)N/N=C/c1ccc(C(F)(F)F)cc1,10.7
12,O=C(N/N=C/c1cc2c(cc1Cl)OCO2)c1ccncc1,19.5
13,CCN(CC)CC#CCC1(O)c2ccccc2-c2ccccc21.Cl,7.63
14,Cc1ccc(NC(=O)Cn2nc(C(F)(F)F)c3c2CCC3)cc1,7.59
15,O=C(O)CCc1ccc(S(=O)(=O)NCCc2ccccc2)cc1,3.76
16,Cc1cc(C(=O)CSc2nc3ccccc3[nH]2)c(C)n1C,1.76
17,Cc1ccccc1CNC(=O)c1ccccc1N(C)S(=O)(=O)c1ccccc1,16.5
18,O=C(NC(Cc1c[nH]c2ccccc12)C(=O)N/N=C/c1cccc2ccccc12)c1cccs1 (stereo not shown),-5.36
19,COC(=O)CC1C(=O)NCCN1C(=O)Nc1ccccc1 (stereo not shown),11.5
20,O=C(C1CCN(S(=O)(=O)N2CCOCC2)CC1)N1CCN(c2ccc(F)cc2)CC1,-2.08
21,C[C@@H](C(=O)NCC1CC1)[C@H]1C[C@]1(C)[C@H](NC(=O)OCc1ccccc1)c1ccccc1,2.79
22,COCCNc1nnc(SCC(=O)NC(=O)c2ccccc2)s1,0.415
